Here are results for 45 molecules from PMC4336329 (PLoS ONE, 2015).

Hit rate of the full screen: of about 310,000 compounds, about 14,000 (4.5%) showed an effect of 50% or more. The effect is printed as a negative number. This is one part of the list.
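Also: peak tail current of the secondary pulse compared with the same well before compound.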

The assay deals with human ether-à-go-go-related gene (hERG) potassium channel (human, UniProt Q12809). As to the kind of experiment: primary screen, population patch clamp on CHO cells stably expressing hERG.
Chain of human ether-à-go-go-related gene (hERG) potassium channel (Q12809 whole entry, looked up): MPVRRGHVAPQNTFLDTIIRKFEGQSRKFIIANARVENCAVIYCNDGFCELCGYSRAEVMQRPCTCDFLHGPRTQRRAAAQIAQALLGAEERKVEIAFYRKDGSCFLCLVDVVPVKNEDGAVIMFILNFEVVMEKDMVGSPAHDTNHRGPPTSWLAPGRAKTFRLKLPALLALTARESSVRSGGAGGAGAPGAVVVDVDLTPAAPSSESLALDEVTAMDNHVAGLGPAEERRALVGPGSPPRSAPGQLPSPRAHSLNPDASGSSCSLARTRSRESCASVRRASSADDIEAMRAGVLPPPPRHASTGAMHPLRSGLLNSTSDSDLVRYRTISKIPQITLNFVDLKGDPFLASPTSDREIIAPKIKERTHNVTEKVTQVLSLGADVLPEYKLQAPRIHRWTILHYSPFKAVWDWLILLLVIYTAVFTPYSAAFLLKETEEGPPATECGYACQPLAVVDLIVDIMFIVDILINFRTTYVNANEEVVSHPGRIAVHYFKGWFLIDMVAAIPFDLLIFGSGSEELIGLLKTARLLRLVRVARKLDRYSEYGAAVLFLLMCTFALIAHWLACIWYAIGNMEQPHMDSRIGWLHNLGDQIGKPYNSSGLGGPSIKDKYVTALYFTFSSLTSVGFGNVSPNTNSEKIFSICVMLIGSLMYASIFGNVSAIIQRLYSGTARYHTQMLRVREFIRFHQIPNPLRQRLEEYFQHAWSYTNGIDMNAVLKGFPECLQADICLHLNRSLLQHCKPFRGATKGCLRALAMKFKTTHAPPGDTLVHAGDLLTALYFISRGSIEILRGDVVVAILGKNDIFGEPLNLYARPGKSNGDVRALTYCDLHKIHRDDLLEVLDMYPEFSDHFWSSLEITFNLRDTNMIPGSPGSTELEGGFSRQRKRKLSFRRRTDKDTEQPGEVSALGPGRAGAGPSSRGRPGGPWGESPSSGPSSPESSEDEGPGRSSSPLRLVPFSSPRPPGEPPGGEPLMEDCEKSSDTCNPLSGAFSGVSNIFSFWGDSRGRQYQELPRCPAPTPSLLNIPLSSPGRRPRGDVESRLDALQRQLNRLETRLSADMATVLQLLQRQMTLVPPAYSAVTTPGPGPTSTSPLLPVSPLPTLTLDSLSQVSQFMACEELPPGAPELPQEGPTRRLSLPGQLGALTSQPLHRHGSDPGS
With `O=C(O)C1CCCCN1S(=O)(=O)c1ccccc1` (stereo not drawn), the “hERG current change (%, negative = inhibition) at 10uM” value is listed as 15.1%. For the molecule `CC(C)(C)NC(=O)c1cc2c(ccc3ccccc32)oc1=O`, the “hERG current change (%, negative = inhibition) at 10uM” value was 27.1%. In the case of `Cc1occc1C(=O)N1CCCc2ccccc21`, the “hERG current change (%, negative = inhibition) at 10uM” value was found to be 5.44%.

For the molecule `COc1ccccc1CCN1CCCC(CN(C)C(=O)CCC(N)=O)C1` (stereo not drawn), the “hERG current change (%, negative = inhibition) at 10uM” value amounted to 22.5%. The result for `CC1CCC(C(C)C)C(OC(=O)COC(=O)c2ccc(N)cc2)C1` (stereo not drawn) reads 6.47%; that for `NC(=O)COc1ncnc2scc(-c3ccc(F)cc3)c12`, 2.16%; that for `CCOc1cc(C2C(C(=O)c3ccccc3)=C(C(=O)OC)Nc3nnnn32)ccc1O` (stereo not drawn), 8.69%. For the molecule `Clc1ccc2nc(SCc3nnc(-c4ccccc4)o3)[nH]c2c1`, the “hERG current change (%, negative = inhibition) at 10uM” value was -18.3%. The figure for `CCn1c(SCC(=O)c2ccc3ccccc3c2)nnc1-c1cccs1` is -8.29%. For `Cc1ccc(NC(=O)COc2ccc(Br)cc2C)cc1`, the “hERG current change (%, negative = inhibition) at 10uM” value was found to be 0.803%. As to `COc1ccc(-c2noc(CCC(=O)Nc3cccc(C)c3)n2)cc1`, the “hERG current change (%, negative = inhibition) at 10uM” value worked out at 7.35%. The result for `Cc1cc(C)cc(OCC(=O)Nc2cc(C)on2)c1` reads 15.9%; that for `COc1cc(C)nc(N2CCCC(C(=O)Nc3cccc(Cl)c3C)C2)n1` (stereo not drawn), 0.916%. With `O=C(O)c1ccc(CSc2nnc(Cc3ccccc3)o2)cc1`, the “hERG current change (%, negative = inhibition) at 10uM” value is listed as -5.04%. The result for `CCCCCN(C(=O)CCC(=O)OCc1ccccc1C)c1c(N)n(CCCC)c(=O)[nH]c1=O` reads -41.1%. The result for `Cc1cccc2nc(CNc3ccc(F)cc3)cn12` reads -16.1%. The result for `CSc1ccccc1C(=O)N1CCN(c2ccc(F)cc2)CC1` reads -17.5%; that for `CC(C)Oc1c(Cl)cc(CNC(C)(C)CO)cc1Cl`, 0.775%.

Take `O=C(C1CC1)N1CCc2cc(Br)cc(S(=O)(=O)NCc3ccco3)c21`: the “hERG current change (%, negative = inhibition) at 10uM” value was -41%. For `COc1ccc(NC(=O)c2cn(CCC#N)nc2-c2cccc([N+](=O)[O-])c2)cc1`, the “hERG current change (%, negative = inhibition) at 10uM” value is recorded as -45.5%. For the molecule `CCOC(=O)C1CCCN(S(=O)(=O)c2ccc3c(c2)N(C)C(=O)CC(=O)N3C)C1` (stereo not drawn), the “hERG current change (%, negative = inhibition) at 10uM” value is 9.56%. The result for `CSc1ccc(S(=O)(=O)NCC(=O)OCC(=O)NCC2CCCO2)cc1[N+](=O)[O-]` (stereo not drawn) reads -2.8%. The figure for `O=C(COC(=O)/C=C/c1ccc(Cl)cc1)Nc1ccccc1-c1ccccc1` is 13.9%; for `CCCCn1c(C)csc1=Nc1cccnc1` it is -2.02%; for `COc1ccc(CN(C(=O)c2nsc(Cl)c2Cl)C(C(=O)NC2CCCC2)c2ccc(OC)cc2)cc1` (stereo not drawn) it is -21.1%. With `O=C(CCc1ccccc1)Nc1nnc(-c2ccccn2)o1`, the “hERG current change (%, negative = inhibition) at 10uM” value was -2.73%. The figure for `Cc1ccc(CN2CCSc3ccc(C(=O)NCC4CCCO4)cc32)cc1` (stereo not drawn) is -10.4%; for `Cn1c(=O)n(CCO)c(=O)c2c1nc(Br)n2Cc1ccccc1` it is 9.83%. The figure for `COC(=O)COc1ccc(S(=O)(=O)NC2CCCCCC2)cc1` is -5.34%; for `COc1cc(/C=C(\C#N)c2ccccn2)ccc1OCC(=O)Nc1cccc(C(F)(F)F)c1.Cl` it is 0.582%; for `Cc1ccc(NC(=O)c2c(C)nc3ccccn23)cc1C` it is 24.1%. The figure for `COc1ccc(-n2c(=O)/c(=C\c3cccs3)s/c2=C(/C#N)C(=O)NCCN2CCOCC2)cc1` is 12.5%; for `CCOC(=O)C1=C(C)OC(N)=C(C#N)C1c1ccc(OC)c(CSc2ccccn2)c1` (stereo not drawn) it is -5.44%; for `O=C(CCC1CCCC1)N1CCN(C(=O)C2CC2)CC1` it is 5.86%. For the molecule `CCCCn1c(N)c(N(CCC(C)C)C(=O)c2[nH]c(C)c(C(=O)OCC)c2C)c(=O)[nH]c1=O`, the “hERG current change (%, negative = inhibition) at 10uM” value was -3.35%. `O=C(c1cc(COc2cccc(C(F)(F)F)c2)on1)N1CCC(Oc2cccnc2)CC1`: the “hERG current change (%, negative = inhibition) at 10uM” value was -64.1%. As for `Cc1cccc(C(=O)Nc2ccc(C(=O)N/N=C/c3cccc(C)n3)cc2)c1`, the “hERG current change (%, negative = inhibition) at 10uM” value was 11.9%. The figure for `Cc1ccccc1NC(=O)CNc1ccccc1N1CCCCC1` is 11.9%; for `CSc1nc(-c2ccco2)nn1C(=O)Cc1ccccc1` it is 0.386%; for `Nc1nc(SCC(=O)Nc2ccc(Oc3ccccc3)cc2)n[nH]1` it is -4.09%.

Turning to `COc1cc(C2=NOC(C(=O)N3CCCc4ccccc43)C2)cc(OC)c1OC` (stereo not drawn), the “hERG current change (%, negative = inhibition) at 10uM” value was determined as 1.24%.

For the molecule `O=C(Nc1ccc(Cl)c(Cl)c1)OCCNC(=O)c1ccncc1`, the “hERG current change (%, negative = inhibition) at 10uM” value is recorded as -4.86%. The figure for `Cc1ccc(C2(c3ccccc3)NC(=O)N(CC(=O)N3CC(=O)Nc4ccccc43)C2=O)cc1C` (stereo not drawn) is -25.6%. Turning to `COC(=O)[C@@H]1C[C@@]2(O)[C@H](O)[C@H](O)[C@H](O)C[C@H]2N1Cc1cc(F)ccc1F`, the “hERG current change (%, negative = inhibition) at 10uM” value is on record as 17.7%.

On to `CCC(=O)NN1CCc2cc3ccc(C)cc3nc21`, for which the “hERG current change (%, negative = inhibition) at 10uM” value was determined as 14.7%.
